# Results reported in the supplement of paper PMC8728848.
# The other results are listed elsewhere or left out.
# B1: MpAFP NterminalRI GFP (Marinomonas primoryensis) (protein)
# chain: MSDNQFPFATLGNAIGFITKLDGSVTVQSIDGQERVLKLGDPIFFGETVLTGGSGSVTIAFVDGTDVVIGGDSIVEMTDEIYNTGDNEDLVADSSSEIDALQNAILAGDDPTLIQDAPAAGNTLADQQRVDVSIERNDNSAQAGFGVDTQSSLPTYGYDTDNGNGGQATEREYSAPSLSRTLNQSPLLEHHHHHH
# How the values were obtained:
# Assay in all cases: glycan array binding signal (z-score within array); higher = stronger binding
# Settings in all cases: glycan notation: IUPAC condensed, linker removed
# [1] = target: Gal(a1-3)Gal
# In short: (§1)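 From the Consortium for Functional Glycomics database, 3228 arrays were curated, keeping only those whose protein sequence was available. Binding is given as a within-array Z-score averaged across arrays sharing a protein sequence and across linkers. Negative Z-scores can be read as non-binding.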
# [2] = target: Gal(a1-3)Gal(b1-3)GlcNAc
# In short: as §1
# [3] = target: Gal(a1-3)Gal(b1-3)GlcNAc(b1-2)Man
# In short: as §1
# [4] = target: Gal(a1-3)Gal(b1-3)GlcNAc(b1-2)Man(a1-3)[Gal(a1-3)Gal(b1-3)GlcNAc(b1-2)Man(a1-6)]Man(b1-4)GlcNAc(b1-4)GlcNAc
# In short: as §1
# [5] = target: Gal(a1-3)Gal(b1-3)GlcNAc(b1-3)GalNAc
# In short: as §1
# [6] = target: Gal(a1-3)Gal(b1-3)GlcNAc(b1-6)GalNAc
# In short: as §1
# [7] = target: Gal(a1-3)Gal(b1-3)[Fuc(a1-4)]GlcNAc(b1-2)Man(a1-3)[Gal(a1-3)Gal(b1-3)[Fuc(a1-4)]GlcNAc(b1-2)Man(a1-6)]Man(b1-4)GlcNAc(b1-4)GlcNAc
# In short: as §1
# [8] = target: Gal(a1-3)Gal(b1-4)Glc
# In short: as §1
# [9] = target: Gal(a1-3)Gal(b1-4)GlcNAc
# In short: as §1
# [10] = target: Gal(a1-3)Gal(b1-4)GlcNAc(b1-2)Man
# In short: as §1
# [11] = target: Gal(a1-3)Gal(b1-4)GlcNAc(b1-2)Man(a1-3)[Gal(a1-3)Gal(b1-4)GlcNAc(b1-2)Man(a1-6)]Man(b1-4)GlcNAc(b1-4)GlcNAc
# In short: as §1
# [12] = target: Gal(a1-3)Gal(b1-4)GlcNAc(b1-3)GalNAc
# In short: as §1
# [13] = target: Gal(a1-3)Gal(b1-4)GlcNAc(b1-6)GalNAc
# In short: as §1
# [14] = target: Gal(a1-3)Gal(b1-4)[Fuc(a1-3)]GlcNAc
# In short: as §1
# [15] = target: Gal(a1-3)Gal(b1-4)[Fuc(a1-3)]GlcNAc(b1-2)Man(a1-3)[Gal(a1-3)Gal(b1-4)[Fuc(a1-3)]GlcNAc(b1-2)Man(a1-6)]Man(b1-4)GlcNAc(b1-4)GlcNAc
# In short: as §1
# [16] = target: Gal(a1-3)GalNAc
# In short: as §1
# [17] = target: Gal(a1-3)[Gal(a1-4)]Gal(b1-4)GlcNAc
# In short: as §1
# [18] = target: Gal(a1-4)Gal(b1-3)GlcNAc(b1-2)Man(a1-3)[Gal(a1-4)Gal(b1-3)GlcNAc(b1-2)Man(a1-6)]Man(b1-4)GlcNAc(b1-4)GlcNAc
# In short: as §1
# [19] = target: Gal(a1-4)Gal(b1-4)Glc
# In short: as §1
# [20] = target: Gal(a1-4)Gal(b1-4)GlcNAc
# In short: as §1
# [21] = target: Gal(a1-4)Gal(b1-4)GlcNAc(b1-2)Man(a1-3)[Gal(a1-4)Gal(b1-4)GlcNAc(b1-2)Man(a1-6)]Man(b1-4)GlcNAc(b1-4)GlcNAc
# In short: as §1
# [22] = target: Gal(a1-4)Gal(b1-4)GlcNAc(b1-3)Gal(b1-4)Glc
# In short: as §1
# [23] = target: Gal(a1-4)GlcNAc
# In short: as §1
# [24] = target: Gal(a1-6)Glc
# In short: as §1
# [25] = target: Gal(b1-2)Gal
# In short: as §1
# [26] = target: Gal(b1-3)Gal
# In short: as §1
# [27] = target: Gal(b1-3)Gal(b1-4)GlcNAc
# In short: as §1
# [28] = target: Gal(b1-3)GalNAc
# In short: as §1
# [29] = target: Gal(b1-3)GalNAc(a1-3)[Fuc(a1-2)]Gal(b1-4)Glc
# In short: as §1
# [30] = target: Gal(b1-3)GalNAc(a1-3)[Fuc(a1-2)]Gal(b1-4)GlcNAc
# In short: as §1
# [31] = target: Gal(b1-3)GalNAc(b1-3)Gal
# In short: as §1
# [32] = target: Gal(b1-3)GalNAc(b1-3)Gal(a1-4)Gal(b1-4)Glc
# In short: as §1
# [33] = target: Gal(b1-3)GalNAc(b1-4)Gal(b1-4)Glc
# In short: as §1
# [34] = target: Gal(b1-3)GalNAc(b1-4)[Neu5Ac(a2-3)]Gal(b1-4)Glc
# In short: as §1
# [35] = target: Gal(b1-3)GlcNAc
# In short: as §1
# [36] = target: Gal(b1-3)GlcNAc(a1-3)Gal(b1-4)GlcNAc
# In short: as §1
# [37] = target: Gal(b1-3)GlcNAc(a1-6)Gal(b1-4)GlcNAc
# In short: as §1
# [38] = target: Gal(b1-3)GlcNAc(b1-2)Man
# In short: as §1
binder,measurement,setting,value
B1,glycan array binding signal (z-score),[1],-0.531
same,glycan array binding signal (z-score),[2],-0.195
same,glycan array binding signal (z-score),[3],-0.467
same,glycan array binding signal (z-score),[4],0.159
same,glycan array binding signal (z-score),[5],-0.294
same,glycan array binding signal (z-score),[6],-0.446
same,glycan array binding signal (z-score),[7],1.99
same,glycan array binding signal (z-score),[8],0.421
same,glycan array binding signal (z-score),[9],-0.58
same,glycan array binding signal (z-score),[10],-0.412
same,glycan array binding signal (z-score),[11],-0.164
same,glycan array binding signal (z-score),[12],-0.507
same,glycan array binding signal (z-score),[13],-0.318
same,glycan array binding signal (z-score),[14],0.036
same,glycan array binding signal (z-score),[15],1.23
same,glycan array binding signal (z-score),[16],-0.159
same,glycan array binding signal (z-score),[17],-0.179
same,glycan array binding signal (z-score),[18],-0.303
same,glycan array binding signal (z-score),[19],-0.074
same,glycan array binding signal (z-score),[20],-0.321
same,glycan array binding signal (z-score),[21],-0.131
same,glycan array binding signal (z-score),[22],-0.463
same,glycan array binding signal (z-score),[23],-0.271
same,glycan array binding signal (z-score),[24],-0.117
same,glycan array binding signal (z-score),[25],-0.242
same,glycan array binding signal (z-score),[26],-0.048
same,glycan array binding signal (z-score),[27],-0.494
same,glycan array binding signal (z-score),[28],-0.228
same,glycan array binding signal (z-score),[29],-0.422
same,glycan array binding signal (z-score),[30],-0.401
same,glycan array binding signal (z-score),[31],0.049
same,glycan array binding signal (z-score),[32],-0.476
same,glycan array binding signal (z-score),[33],-0.02
same,glycan array binding signal (z-score),[34],-0.464
same,glycan array binding signal (z-score),[35],-0.134
same,glycan array binding signal (z-score),[36],-0.335
same,glycan array binding signal (z-score),[37],-0.622
same,glycan array binding signal (z-score),[38],-0.267
